According to PubChem BioAssay AID1645887 (National Center for Advancing Translational Sciences (NCATS), 2021):
Where “and” joins values, the source holds several entries; their conditions need not be identical. Identical values can stand only once. Screen size: about 16,000 compounds; about 40 (0.2%) were called active. Not shown: some 1% with an inconclusive outcome. The call rests on the fitted dose curve; in most records, active means well fitted activation curve with a large enough effect; inconclusive means small, poorly fitted or top-dose-only effect, or another doubt; inactive means no such curve, though single readings can be large or run the other way. The list shows a part of the results. Residues, ends and D or L forms follow the SMILES beside them.

Molecular target: Rap guanine nucleotide exchange factor 4 (Homo sapiens) (UniProt Q8WZA2)
UniProt Q8WZA2, sequence (Q8WZA2 whole entry, looked up): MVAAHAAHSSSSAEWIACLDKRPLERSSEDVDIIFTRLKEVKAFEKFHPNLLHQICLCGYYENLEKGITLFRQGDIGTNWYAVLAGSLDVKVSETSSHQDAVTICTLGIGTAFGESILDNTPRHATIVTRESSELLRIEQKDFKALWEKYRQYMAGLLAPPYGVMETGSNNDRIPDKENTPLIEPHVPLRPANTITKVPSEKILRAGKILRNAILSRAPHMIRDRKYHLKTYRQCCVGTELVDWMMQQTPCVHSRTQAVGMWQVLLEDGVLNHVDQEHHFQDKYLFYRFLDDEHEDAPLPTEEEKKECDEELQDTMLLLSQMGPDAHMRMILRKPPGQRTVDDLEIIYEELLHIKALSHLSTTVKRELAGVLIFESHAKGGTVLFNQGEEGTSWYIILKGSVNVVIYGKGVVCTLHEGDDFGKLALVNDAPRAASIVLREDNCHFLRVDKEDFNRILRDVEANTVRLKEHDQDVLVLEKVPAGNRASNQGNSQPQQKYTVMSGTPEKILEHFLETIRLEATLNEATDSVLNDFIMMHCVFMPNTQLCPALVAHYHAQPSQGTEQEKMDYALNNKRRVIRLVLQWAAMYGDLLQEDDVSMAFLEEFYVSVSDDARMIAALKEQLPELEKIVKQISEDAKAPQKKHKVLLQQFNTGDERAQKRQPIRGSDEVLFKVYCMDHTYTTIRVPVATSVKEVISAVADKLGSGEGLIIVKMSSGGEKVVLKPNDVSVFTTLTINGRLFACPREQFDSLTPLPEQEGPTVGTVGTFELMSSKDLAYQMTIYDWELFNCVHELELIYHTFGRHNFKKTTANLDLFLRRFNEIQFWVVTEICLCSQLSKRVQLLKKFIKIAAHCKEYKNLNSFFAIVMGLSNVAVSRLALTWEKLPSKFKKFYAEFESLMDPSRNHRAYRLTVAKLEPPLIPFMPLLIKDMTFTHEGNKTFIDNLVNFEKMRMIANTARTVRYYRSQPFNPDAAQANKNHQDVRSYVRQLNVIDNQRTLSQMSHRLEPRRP
Test: Validation qHTS for agonist of cAMP-regulated guanine nucleotide exchange factor 4 (EPAC2);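 further: exchange makes BODIPY-GDP fluorescence drop when released from Rap1B; series mostly up to about 150 µM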
Details: EPAC2 Rap1B BODIPY-GDP exchange, fluorescence; activation: stronger effect = higher value
Outline: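 Signal normalized against 6.5 mM cAMP as agonist control. Mix of EPAC2 (100 nM), RAP1B-BODIPY-GDP (250 nM) and GDP (50 uM) was read kinetically at 480/540 nm, every 5 min over 30 min, after 5 min room-temperature incubation with compound.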
On the % scale 0 is the no-effect control and ±100 the full control effect.

activation, inactive:
O=c1c(-c2ccccc2)nc2cnc(N3CCNCC3)nc2n1Cc1ccc(F)cc1 -7.85%
COc1ccc(Oc2ncc3nc(-c4ccc(OC)cc4)c(=O)n(C)c3n2)cc1 -6.44%
Cc1cc(C)n(CC(=O)N2CCC(n3c(C(C)C)nc4cccnc43)CC2)n1 -2.74%
Cc1noc(C)c1C(=O)N1CCC2(CCN(Cc3nccs3)CC2)CC1 -31%
CN1CCN(CCCN2c3ccccc3Sc3ccc(S(=O)(=O)N(C)C)cc32)CC1 -14.5%
COCc1ccc(CN2CCOc3ccc(C4=CCCCC4)cc3C2)o1 -26%
CCCC[P+](CCCC)(CCCC)Cc1ccc(NC(=O)[C@@H](Cc2ccc3ccccc3c2)NC(=NC2CCCCC2)NC2CCCCC2)cc1 -4.51%
Cc1nc2ccccc2nc1CN1CCOc2ccc(CN3CCc4sccc4C3)cc2C1 -7.8%
CS(=O)(=O)Nc1cccc(-c2nc(NC3CC3)c3ccccc3n2)c1 -4.91%
CCCCCCCCC#CCC#CCC#CCCCC(=O)O -4.17%
Cc1c(C(=O)NCC2(c3ccccc3)CCOCC2)cnn1-c1nccc(-c2ccco2)n1 -0.973%
O=c1cc(-c2cc(O)c(O)c(O)c2)oc2cc(O)cc(O)c12 -2.87%
C[C@@H]1CC(=O)NN=C1c1ccc(NN=C(C#N)C#N)cc1 0.0484%
CCCCC[C@H]1CN(Cc2ccccc2)C(=O)[C@@H]1CC(=O)NCc1ccccc1 -19.8%
COc1ccc(-c2nc(C(=O)N3CCN(C)CC3)sc2-c2ccc(OC)cc2)cc1 -30.8%
CC(=O)Nc1ccc(SC[C@H](Cc2ccccc2)N2CC[C@@H](N)CCC2=O)cc1 -6.32%
COc1c(C=O)c(=O)[nH]c2c(OC)cccc12 -7.45%
CC(=O)OCC(=O)[C@@]1(O)CCC2C3CCC4=CC(=O)CC[C@]4(C)C3C(O)C[C@]21C (some centres not stated) 5.38%
Cc1noc(C)c1-c1cncnc1Nc1ccccc1 -6.96%
COc1ccc(C(=O)N2CCC3(CCN(Cc4cc(C(F)(F)F)cc(C(F)(F)F)c4)CC3)CC2)cc1 -9.28%
Cc1ccccc1-c1cc(N(C)Cc2ccco2)ncn1 -4.03%
NC(=O)CC[C@@H]1NC(=O)[C@H](Cc2ccccc2)NC(=O)[C@H](Cc2ccc(O)cc2)NC(=O)[C@@H](N)CSSC[C@@H](C(=O)N2CCC[C@H]2C(=O)N[C@@H](CCCN=C(N)N)C(=O)NCC(N)=O)NC(=O)[C@H](CC(N)=O)NC1=O -23.4% and 1.61%
COc1ccccc1C(=O)N[C@@H]1c2ccccc2C2(CCN(Cc3cccnc3)CC2)[C@H]1O -2.5%
CCCCCc1ccc(-c2cn(Cc3ccc4ccccc4c3)nn2)cc1 -18.9%
CC(=O)Nc1cc(C(=O)N2CCSCC2)cc2ncn(CCc3ccccn3)c12 -5.96%
Cc1ncc2c(c1CNC(=O)c1ccc3c(c1)OCO3)CCN(C(=O)c1csc3c1CCCC3)C2 0.836%
CCCCCCCCCCCCCCCCCC(=O)OC[C@@H](O)[C@H]1OC[C@H](O)[C@H]1O -39.6%
N=c1ccn2c(n1)O[C@H]1[C@H](O)[C@@H](CO)O[C@H]12 -2.62% and -11.4%
CC(=O)Oc1c(C)cccc1C(=O)O -9.7%
CN(C)c1nc(-c2ccc3c(c2)OCO3)nc2ccccc12 1.9%
CCCCCCCC/C=C\CCCCCCCC(=O)NCc1ccc(O)c(OC)c1 -71.8% and -45.2%
COc1ccc(C(=O)N2CCC[C@@]3(CCN(Cc4nccs4)C3)C2)cc1 -10.6%
CCN(Cc1ccncc1)Cc1ccc2c(c1)CN(C(=O)c1ccccc1-n1cccn1)CCO2 -10.9%
O=c1c(-c2cc(F)cc(F)c2)nc2cnc(N3CCOCC3)nc2n1CCc1ccccc1 -4.83%
COCCn1c(=O)c(C)nc2cnc(Nc3cccc(OC)c3)nc21 -12.1%
CC(=O)Oc1cc(C(F)(F)F)ccc1C(=O)O -12.5%
CC(C)Cc1ccc([C@H](C)C(=O)O)cc1 -9.96% and -10.2%
COCC(=O)Nc1cc(C(=O)N2CCCC2c2nccs2)c2c(c1)nc(-c1ccncc1)n2C (configuration not stated) -1.76%
COc1cccc(-c2cncnc2Nc2ccc(F)cc2)c1 -16.3%
CS(=O)(=O)NCc1ccccc1Br -10.2%
COC(=O)C[C@H]1c2cc(F)cc(F)c2S(=O)(=O)N1C1CCN(Cc2ccccc2)CC1 -16.4%
COc1ccc(-n2c(=O)c(C)nc3cnc(OC)nc32)cc1 -13.5%
O=C1CC[C@H](C(=O)O)N1 9.34%
COc1ccc(CCN(C)Cc2cc(-c3cncnc3)ccc2O)cc1OC -2.26%
O=C(c1ccco1)N1CCC2(CCCN(C(c3ccccc3)c3ccccc3)C2)CC1 -45.8%
CNc1ncncc1-c1c(C)noc1C -1.23%
N[C@H](C(=O)O)C1[C@H](C(=O)O)[C@H]1C(=O)O (some centres not stated) -6.99%
O=C(O)c1cc(=O)c2cccc(O)c2[nH]1 3.38% and -8.41%
O=c1[nH]cc(F)c(=O)[nH]1 3.36% and 8.2% and -16.6%
CCOc1cc(NC(C)=O)ccc1C(=O)OC -28.6%
COc1ccc(CNc2nc(-c3cccnc3)nc3ccccc23)c(OC)c1 13.6%
Cc1c(C(=O)NCC2(N3CCOCC3)CCCCCC2)cnn1-c1nccc(-c2ccccc2F)n1 -12.2%
C[C@]12C=CC(=O)C=C1CC[C@@H]1[C@@H]2[C@@H](O)C[C@@]2(C)[C@H]1CC[C@]2(O)C(=O)CO -9.45%
COc1cccc(CN2C(=O)NC(C)(C3CCN(Cc4ccc(C)o4)CC3)C2=O)c1OC (configuration not stated) -11.1%
Cc1c(C(=O)NC2CCCCCC2)sc2ncnc(NCC3CCCO3)c12 (configuration not stated) -17.3%
COc1ccc(CN2C[C@H](C)[C@@H](CC(=O)NCc3ccccc3)C2=O)cc1 -27.6%
CC1(C)C2CC[C@@]1(C)C(=O)C2 -8.45%
C=C1C[C@]23CC[C@H]4C(CO)(CO)C[C@@H](O)C[C@@]4(C)[C@@H]2CC[C@H]1C3 -10.7%
Nc1ccc(O)c(C(=O)O)c1 9.78%
COc1ccc(Oc2ncc3nc(-c4ccc(F)cc4)c(=O)n(C)c3n2)cc1 -21.3%
NCCCCC(NC(CCc1ccccc1)C(=O)O)C(=O)N1CCCC1C(=O)O (configuration not stated) -1.84%
CCC(=O)O[C@H](CC(=O)O)C[N+](C)(C)C -20.8%
CCOC(=O)C[C@H]1c2ccc(C(F)(F)F)cc2S(=O)(=O)N1c1cccc(OC)c1 -41.3%
Cc1cc(OC(=O)c2c(C)cc(O)cc2O)cc(O)c1C(=O)O -15.8% and -10.5%
O=C(c1ccncc1)N1CCC2(CC1)CN(c1cccc(-c3ccccc3)c1)C2 8.96%
CCN(CC)CCOC(=O)C1(c2ccc([N+](=O)[O-])cc2)CCCC1 -21.4% and 2.58%
Cc1nc2cc(NC(=O)[C@@H]3C[C@@H](Sc4ccccn4)CN3Cc3ccccc3C)ccc2s1 -7.02%
CO[C@@]1(NC(=O)C2SC(=C(C(N)=O)C(=O)O)S2)C(=O)N2C(C(=O)O)=C(CSc3nnnn3C)CS[C@@H]21 (some centres not stated) -26.6%
CN(C)c1ncc2nc(-c3cc(F)cc(F)c3)c(=O)n(Cc3ccc(F)cc3)c2n1 -10.7%
COc1ncccc1C(=O)N1CCOc2ccc(C(O)C(c3ccccc3)c3ccccc3)cc2C1 (configuration not stated) -6.68%
NC(=O)C1=CN(C2OC(COP(=O)(O)OP(=O)(O)OC[C@H]3O[C@@H](n4cnc5c(N)ncnc54)[C@H](OP(=O)(O)O)[C@@H]3O)C(O)C2O)C=CC1 (some centres not stated) -18.5%
Cc1c(C)c2c(c(C)c1OC(=O)c1cccnc1)CC[C@@](C)(CCC[C@H](C)CCC[C@H](C)CCCC(C)C)O2 4.41%
CO[C@]1(C2=NCCN2)COc2ccccc2O1 -24.2%
CC(=O)N[C@@H](CC(=O)O)C(=O)N[C@@H](CCC(=O)O)C(=O)O (Ac-Asp-Glu-OH) -16.2%
Cc1cc(C(C)(C)CC(C)(C)C)ccc1OCCOCC[N+](C)(C)Cc1ccccc1 -20.8%
CCC(C)[C@H]1COCCS(=O)(=O)N1Cc1ccc(C)cc1 (some centres not stated) -30.2%
Cc1cc(NC(=O)C2=C(O)c3ccccc3S(=O)(=O)N2C)no1 -8.9%
CC(C)(CO)NC(=O)c1cnn(-c2nccc(-c3ccc4c(c3)OCO4)n2)c1C1CC1 -10.7%
CC(CCC(=O)O)C1CCC2C3CC[C@H]4CC(O)CC[C@@]4(C)C3CC(O)[C@]12C (some centres not stated) -3.15%
CN(C)c1ncc2nc(-c3ccc(Cl)cc3)c(=O)n(C3CC3)c2n1 0.968%
Cn1cccc1C(=O)N1CCC2(CC1)CN(c1ccccn1)C2 -9.92%
CN(C)c1ccc(-c2nc(-n3ccnc3)c3ccccc3n2)cc1 -31.6%
